The source gives no read counts; variants with many changes may rest on few reads.
B1: LINE1-full (parent)
chain: UACGUAGGUGGUUUUCCCCUGAUAGUGCUAAGGGGGCCUGGAAGUUUGGACUGGGCAGAGCUCAACACAGCGUGGCAAAGUGGCUGUGGCUAGACUGCCUCUCUGGAUUCCUCGUCACUCAGCAGGGCAUCUCUGAGAGAAAUGCC

Variants of: B1
Experiment: self-cleavage, relative activity (ratio to wild type); higher = more cleavage; in vitro, sequencing; the parent is a self-cleaving ribozyme

| Variant | self-cleavage |
| --- | --- |
| UACGUAGGUGGUUUUCCCCUGACAGUGCUAAGGGGGCCUGGAAGUUUGGACUGGGCAGAGCUCAACACAGCGUGGCAAAGUGGCUGUGGCUAGACUGCCUCUCUGGAUUCCGCGUCACCCAGCAGGGCAUCUCUGAGAGAAAUGCC [U23C U112G U119C] | 1.97 |
| UACGUAGGUGGUUUUCCCCUGAGAGUGCUAAGGGGGCCUGGAAGUUUGGACUGGGCAGAGCUCAAUACAGCGUGGCAAAGUGGCUGUGGCUAGACUGCCUCUCUGGAUUCCUCGUCACUCAGCAGGGCAUCUCUGAGAGGAAUGCC [U23G C66U A140G] | 0.06 |
| UACGUAGGUGGUUUUCCCCUGACAGUGCUAAGGGGGCCUGGAAGUUUGGACUGGGCAGAGCUCAACACAGCGUGGCAAAGUGGCUGUGGCUAGACUGCCUCUCUGGAUUCCUCGUCACUCAGCAGGACACCGCUGAGAGAAAUGCC [U23C G127A U130C U132G] | 1.27 |
| UACGUAGGUGGUUUUCCCCUGACAGUGCUAAGGGGGCCUGGAAGUUUGGACUGGGCAGAGCUCAACACAGCGUGGCAAAGAGGCCGUGGCUAGACUGCCUCUCUGGACUCCUCGUCACUCAGCAGGGCAUCCCUGAGAGAAAUGCC [U23C U81A U85C U108C U132C] | 0 |
| UACGUAGGUGGUUUUCCCCUGAGAGUGCUAAGGGGACCUGGAAGUUUGGACUGGGCAGAGCUCAACACAGCGUGGCAAAGUGGCUGUGGCUAGACUGCCUCUCUGGAUUCCUCGUCACUCAGCAGGGCAUCUCCGAGAGAAAUGCC [U23G G36A U134C] | 0.77 |
| UACGUAGGUGGUUUUCCCCUGACAGUGCUAAGGGGGCCUGGAAGCUUGGACUGGGCAGAGCUCAACACAGCGUGGCAAAGUGGCUGUGGCUUGACUGCCUCUCUGGAUUCCUCGUCACACAGCAGGGCAUCUCUGGGAGAAAUGCC [U23C U45C A92U U119A A136G] | 1.36 |
| UACGUAGGUGGUUUUCCCCUGACAGUGCUAAGGGGGCCUGGAAGUUUGGACUGGGCAGAGCUCAACACAGCGUGGCAAAGUGGCUGUGGCUAGACUGCCUCUCUGGAUUCCUCGUCACUCAGCAGGGCAUCCCUGAGAGAGAUGCC [U23C U132C A141G] | 0.12 |
| UACGUAGGUGGUUUUCCCCUGACAGUGCUAAGGGGGCCUGGAAGUUUGGACCGGGCAGAGCUCAACACAGCGUGGCAAAGUGGCUGUGGCUAGACUGCCUCUCCGGAUUCCUCGUCACUCAGCAGGGCAUCUCUGAGAGAAAUGCC [U23C U52C U104C] | 1.91 |
| UACGUAGGUGGUUUUCCCCUGACAGCGAUAAGGGGGCCUGGAAGUUUGGACUGGGCAGAGCUCAACACAGCGUGGCAAAGUGGCUGUGGCUAGACUGCCUCUCUGGAUUCCUCGUCACUCAGCAGGGCAUCUCUGAGAGAAAUGCC [U23C U26C C28A] | 1.75 |
| UACGUAGGUGGUUUUCCCCUGACAGUGCUAAGGGGGCCUGGAAGUUUGGACUGGGCAGAGCUCAACACAGCGAGGCAAAGUGGCUGUGGCCAGACUGCCUCUCCGGAUUCCUCGUCACUCAGCAGGGCAUCUCUGAGAGAAAUGCC [U23C U73A U91C U104C] | 1.84 |
| UACGUAGGUGGUUUUCCCCUGAGAGUGCUAAGGGGGCCUGGAAGUUUGGACUGGGCAGAGCUCAACUCAGCGUGGCAUAGUGGCUGUGGCUAGACUGCCUCUCUGGAUUCCUCGUCACUCAGCAGGGCAUCUCUGAGAGAAAUGCC [U23G A67U A78U] | 0.3 |
| UACGUAGGUGGUUUUCCCCUGAGUGUGCUAAGGGGGCCUGGAAGUUUGGACUGGGCAGAGCUCAACACAGCAUGGCAAAGUGGCUGUGGCUAGGCUGCCUCUCUGGAUUCCUCGUCACUCAGCAGGGCAUCUCUGAGAGAAAUGCC [U23G A24U G72A A94G] | 0.45 |
| UACGUAGGUGGUUUUCCCCUGAUCGUGCUAAGGGGGCCUGGAAGUUUGGACUGGGCAGAGCUCAACACAGCGUGGUAAAGUGGCUGUGGCUAGACUGCCUCUCUGGAUUCCUCGUCACUCAGCAGGGCAUCACUGAGAGAAAUGCC [A24C C76U U132A] | 2.42 |
| UACGUAGGUGGUUUUCCCCUGACAGUGCUAAGGGGGCCUGGAAGUUUGGACUGGGCAGAGCUCAACACAGCGCGGCAAAGUGGCCGUGGCUAGACUGCCUCUCUGGAUUCCUCGUCACUCAGCAGGGCAUCUCUGUGAGAAAUGCC [U23C U73C U85C A136U] | 0 |
| UACGUAGGUGGUUUUCCCCUGACAGUGCUAAGGGGGCCUGGAAGUUUGGACUGGGCAUAGCUCAACACGGCGUGGCAAAGUGGCUGUGGCUAGACUGCCUCUCUGGAUUCCUCGUCACUCAGCAGGGCAUCUCUGAGAGAAAUGCC [U23C G58U A69G] | 0.05 |
| UACGUAGGUGGUUUUCCCCUGACAGUGCUAAGGGGGCCUGGAAGUUUGGACUGGGCAGAGCUCAACACAGCAUGGCAAAGUGGCCGUGGCUAGACUGCCUCUCUGGAUUCCUCGUCACUCAGCAGGGCAUCUCUGAGAGAAAUGCC [U23C G72A U85C] | 0.17 |
| UACGUAGGUGGUUUUCCCCUGACAGUGCUAAGGGGGCCUGGAAGUUUGGACUGGGCAGAGCUCAACACAGCGUGGCAAAGUGGCUGCGGCUAGACUGCCUCUCUAGAUUCAUCGUCACUCAGCAGGGCAUCUCUGAGAGAAAUGCC [U23C U87C G105A C111A] | 0.11 |
| UACGUAGGUGGUUUUCCCCUGACAGUGCCAAGGGGGCCUGGAAGUUUGGACUGGGCAGAGCUCAACACAGCGUGGCAAAGUGGCUGUGGCUAGACUGCCUCUCUGGAUUCCUCGUCGCUCAGCAGGGCAUCUCUGAGAGAAAUGCC [U23C U29C A117G] | 0.24 |
| UACGUAGGUGGUUUUCCCCUGACAGUGCUAAGGGGGCCUGGAAGCUUGGACUGGGCGGAGCUCAACACAGCGUGGCAAAGUGGCUGUGCCUAGACUGCCUCUCUGGAUUCCUCGUCACUCAGCAGGGCAUCUCUGAGAGAAAUGCC [U23C U45C A57G G89C] | 0 |
| UACGUAGGUGGUUUUCCCCUGACAGUGCUAAGGGGGCCUGGAAGUUUGGACUGGGCAUAGCUCAACACAGCGUGGCAGAGUGGCUGUGGCUAGACUGCCUCUCUGGAUUCCUCGGCACUCAGCAGGGCAUCUCUGAGAGAAAUGCC [U23C G58U A78G U115G] | 0 |

| Variant | self-cleavage |
| --- | --- |
| UACGUAGGUGGUUUUCCCCUGACAGUGCUAAGGGGGCCUGGAAGUCUGGACUGGGCAGAGCUCAACACAGCGUGACAAAGUGGCUGUGGCUAGACUGCCUCUCUGGAUUCCUCGUCACUCUGCAGGGCAUCCCUGAGAGAAAUGUC [U23C U46C G75A A121U U132C C145U] | 0.84 |
| UACGUAGGUGGUUUUCCCCUGACAGUGCCAAGGGGGCCUGGAAGUUUGGACAGGGCAGAGCUCAACACAGCGUGGCAAAGUGGCUGUGGCUAGACUGCCUCUCUGGAUUCCUCGUCUCUCAGCAGGGCAUCUCUGAGAGAAAUGCC [U23C U29C U52A A117U] | 1.39 |
| UACGUAGGUGGUUUUCCCCUGACAGUGCUAAGGGGGCCUGGAAGUUUGGACCGGGCAGAGCUCAACACAGCGUGGCUAAGAGGCUGUGGCUAGACUGCCUCUCUGGAUUCCUCGUCACUCAGCAGGGCAUCUCUGAGAGAAGUGCC [U23C U52C A77U U81A A142G] | 1.34 |
| UACGUAGGUGGUUUUCCCCUGACAGUGCUAAGGGGGCCAGGAAGUUUGGACUGGGCAGGGCUCAACCCAGCGUGGCAAAGUGGCUGUGGCUAGACUGCCUCUCUGGAUUCCUCGUCACUCAGCAGGGCAUCUCUGAGAGAAGUGCC [U23C U39A A59G A67C A142G] | 0.14 |
| UACGUAGGUGGUUUUCCCCUGAUGGUGCUGAGGGGGCCUGGAGGUUUGGACUGGGCAGAGCUCAACACAGCGUGGCAAAGUGGCUGUGGCUAGACUGCCCCUCUGGAUUCCUCGUCACUCAGCAGGGCAUCUCUGAGAGAAAUGCC [A24G A30G A43G U100C] | 0.44 |
| UACGUAGGUGGUUUUCCCCUGACAGUGCUAAGGGGGCCUGGAAGUUUGGACUGGGCAGAGCUCAACACAGCGUGGCAAAGUGGCUGUGGCUAGACCGCCUCUCUGGAUUCCUCGCCACUCAGCAGGGCAUCUCUGAGAGAAAUGCC [U23C U96C U115C] | 0.21 |
| UACGUAGGUGGUUUUCCCCUGACAGUGCUAAGGGGGCCUGGAAGUUUGGACUGGGCAGAGCUCAACACAGCACGGCAAAGUGGCUGUGGCUAGACUGCCUCUCUGGAUUCCUCGUCACUCAGCAGGGCAUAUCUGAGAGAAAUGCC [U23C G72A U73C C131A] | 1.72 |
| UACGUAGGUGGUUUUCCCCUGACAGCGCUAAGGGGGCCUGGAAGUUUGGACUGGGCAGAGCUCAACACAGCGUGGCAAAGUGGCUGUGGCUAGACUGCCUCUCUGGAUUCCUCGUCACUCAGCAGGGCAUCUCAGAGAGAAAUGCC [U23C U26C U134A] | 0.86 |
| UACGUAGGUGGUUUUCCCCUGACAGUGCUAAGGGGGCCUGGAAGUCUGGACUGGGCAGAGCUCAACACAGCGUGGCAAAGUGGCUGUGGCUAGACUGCCUCUCUGGAUUCCUCGUCACUCAGCAGGGCAUCUCUGAGAGAAAAGCC [U23C U46C U143A] | 1.51 |
| UACGUAGGUGGUUUUCCCCUGAUGGUGCUGAGGGGGCCUGGAAGUUUGGACUGGGCAGAGCUCAACACAGCGUAGCAAAGUGGCUGUGGCUAGACUGCCUCUCUGGAUUCCUCGUUACUCAGCAGGGCAUCUCUGAGAGAAAUGCC [A24G A30G G74A C116U] | 0.85 |
| UACGUAGGUGGUUUUCCCCUGACAGUGCUAAGGGGGCCUGGAAGCUUGGACUGGGCAGAGCUCAACACAGUGUGGCAAAGUGGCUGUGGCUAGACUGCCUCUCUGGAUUCCUCGUCACUCAGCAGGGCAUCUCUAAGAGAAAUGCC [U23C U45C C71U G135A] | 1.83 |
| UACGUAGGUGGUUUUCCCCUGACAGCGCUAAGGGGGCCUGGAAGUUUGGACUGGGCAGAGCUCAACACAGCAUGGCAAAGUGGCUGUGGCUAGACUGCCUCUCUGGAUUCCUCGUCACUCGGCAGGGCAUCUCUGAGAGAGAUGCC [U23C U26C G72A A121G A141G] | 1.84 |
| UACGUAGGUGGUUUUCCCCUGAUCGUGCUAAGGGGGCCUGGAAGUUUGGACUGGGCAGGGCUCAACACAGCGUGGCAAAGUGGCUGUGGCUAGACUGCCUCUCUGGAUUCCUCGUCACCCAGCAGGGCGUCUCUGAGAGAAAUGCC [A24C A59G U119C A129G] | 0 |
| UACGUAGGUGGUUUUCCCCUGACAGUGCUAAGGGGGCCUGGAAGUCUGGACUGGGCAGAGCUCAACACAGCGUGGCAAAGUGGCUGUGGCUAGGCUGCCUCUCUGGAUUCCUCGUCACUCAGUAGGGCAUCUCUGAGGGAAAUGCC [U23C U46C A94G C123U A138G] | 0.51 |
| UACGUAGGUGGUUUUCCCCUGAUCGUGCUAAGGGGGCCUGGAAGUUUGGACUGGGCAGAGCUCAACACAGCGUGGCAAAGUGGCUGUGGCUAGACUGCCUCUCUGGGUUCCUCGUCACUCAGCAGGGCAUCUCUGAGCGAAAUGCC [A24C A107G A138C] | 0.67 |
| UACGUAGGUGGUUUUCCCCUGACAGUGCUAAGGGGGCCUGGAAGUUUGGACUGGGCAGAGCUCAACACAGCGUGGCAAAGUGGCUGUGGCUAGACCGCCUCUCUGGAUUCCUCGUCACUCAGCAGGGCAUCUCUGAGGGAAAUGCC [U23C U96C A138G] | 0.14 |
| UACGUAGGUGGUUUUCCCCUGACAGUGCUAAGGGGGCCUGGAAGUUUGGACUGGGCAGAGCUCAACACAGCGUGGCAAAGUGGCUGUGGCAAGACUGCCUCUCUGGAUUCCUCGUCACUCAGCAGGGCGUCUCUGAGAGAAAUGCC [U23C U91A A129G] | 2.04 |
| UACGUAGGUGGUUUUCCCCUGACAGUGCUAAGGGGGCCUGGAAGUUCGGACCGGGCAGGGCUCAACACAGCGUGGCAAAGUGGCUGUGGCUAGACUGCCUCUCUGGAUUCCUCGUUACUCAGCAGGGCAUCUCUGAGAGAAAUGCC [U23C U47C U52C A59G C116U] | 0.51 |
| UACGUAGGUGGUUUUCCCCUGACAGUGCUAAGGGGGCCUGGAAGUUUGGACUGGGCAGAGCUCAACACAGCGUGGCAAAGUGGCUGUGGCUAGACUGCCCCUCUGGAUUCCUCGUCACUCAGCAGGGCACCUCUGAGAGAAAUGCC [U23C U100C U130C] | 1.7 |
